Assay results taken from patent US20250084178A1, “ANTI-CD39 ANTIBODIES AND USE THEREOF” (ARCUS BIOSCIENCES, INC., priority 2022, published 2025).

T1: His-tagged human CD39 ECD (Homo sapiens, UniProt P49961)
T1 construct: purchased Sino Biological 16020-H08B
T1 sequence (P49961 with tags, fused parts or gaps): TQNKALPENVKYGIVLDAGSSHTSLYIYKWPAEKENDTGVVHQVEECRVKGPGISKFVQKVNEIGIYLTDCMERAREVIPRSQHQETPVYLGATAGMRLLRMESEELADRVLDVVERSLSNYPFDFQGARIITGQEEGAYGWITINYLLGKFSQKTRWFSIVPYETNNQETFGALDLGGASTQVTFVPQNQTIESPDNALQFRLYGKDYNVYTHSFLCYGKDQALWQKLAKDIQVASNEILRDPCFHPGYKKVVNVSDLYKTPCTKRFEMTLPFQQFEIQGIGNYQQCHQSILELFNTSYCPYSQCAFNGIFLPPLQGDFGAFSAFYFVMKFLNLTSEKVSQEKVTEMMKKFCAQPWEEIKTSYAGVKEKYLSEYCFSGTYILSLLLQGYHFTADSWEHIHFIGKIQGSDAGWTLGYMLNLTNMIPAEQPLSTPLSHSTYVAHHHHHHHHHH


Columns and labels:
[1] = molecular target: T1, His-tagged human CD39 ECD; experiment: SPR kinetics, Biacore 8K, captured antibody and soluble CD39 ECD analyte; type: binding
Protocol: The kinetic binding of these recombinant anti-CD39 antibodies to human CD39 was determined by surface plasmon resonance (SPR) using a Biacore 8K instrument. Recombinant antibodies were immobilized using a goat anti-human Fc IgG coated CM5 sensor chip (GE, Cat. No. 29-1496-03), and soluble His-tagged CD39 ECD protein SEQ ID NO: 72 (Sino Biological, Cat. No. 16020-H08B) was used as the analyte. The binding constants were determined at 25° C.
The kinetics of purified antibody binding to antigen were determined using Surface Plasmon Resonance (SPR) and used to rank the antibodies. The affinity of anti-CD39 antibodies to human CD39 ECD His-tagged antigen (SEQ ID NO: 72) was measured using a Biacore 8K instrument. The activator was prepared by mixing 400 mM EDC and 100 mM NHS (GE) immediately prior to injection. The CM5 sensor chip (GE, Cat. No. 29-1496-03) was activated for 420 s with the activator. Goat anti-human Fc IgG (30 μg/mL in 10 mM NaAc, pH 4.5) was then injected to the channel for 420 s at a flow rate of 10 μL/minute. The chip was deactivated by 1 M ethanolamine hydrochloric acid. Anti-CD39 antibodies were diluted to 4 μg/mL in running buffer (1×HBS-EP+) and were injected to the channel at a flow rate of 10 μL/minute for 15 s. Six concentrations (8, 4, 2, 1, 0.5 and 0.25 nM) of the CD39 antigen analyte were injected orderly to the channel at a flow rate of 30 μL/minute for an association phase of 180 s, followed by a 2400 s dissociation phase. Glycine (10 mM, pH 1.5) as regeneration buffer was injected following the dissociation phase. The sensorgrams for reference channel and buffer channel were subtracted from the test sensorgrams. The experimental data were fitted with a 1:1 binding model steady state affinity/heterogeneous ligand. The molecular weights of the CD39 antigen and anti-CD39 antibodies used in the calculation were 52 and 145 kDa, respectively.

NLRP3 inflammasome = experiment: Macrophage IL-1β/IL-18 release assay; type: cell-based, human; conditions: in vitro derived macrophages; LPS, antibody 10 or 100 nM, 500 μM ATP; relative to isotype control
Protocol: Macrophage IL-1β/IL-18 Release Assay: The NLRP3 inflammasome is a multiprotein, cytosolic complex that once oligomerized allows for the cleavage and activation of pro-caspase-1 proteins into caspase-1. […] These cytokines are involved in innate immune responses, creating a generalized pro-inflammatory environment.
Anti-CD39 antibodies were tested for their ability to activate the NLRP3 inflammasome on macrophages, by measuring the secretion of mature IL-1β and IL-18. On day 0, previously isolated, positively selected CD14^+ monocytes (see Example 4 were defrosted and cultured in RPMI media with 10% heat inactivated FBS, 1% Glutamax, 1% Penicillin/Streptomycin and 50 ng/mL recombinant human M-CSF (R&D, Cat. No. 216MCC/CF) at a density of approximately 15×10^6 CD14^+ monocytes per 10 cm dish (Thermo Scientific Nunclon Delta Surface, Cat. No. 150464). On day 5, non-adherent cells were washed off and the adherent macrophages were collected by scraping and plated at a density of 0.125×10^6 cells per well in 24-well plates. The cells were then incubated overnight to allow adherence. […] The supernatants were collected and IL-1β levels were analyzed by CBA (BD, Cat. No. 558279) or ELISA (R&D, Cat. No. QK201) following manufacturer's instructions. IL-18 levels in the supernatants were analyzed by ELISA (R&D, Cat. No. DL180) following manufacturer's instructions. […]

[2] = 25° C., rat/human chimeric antibodies (Table 2)
[3] = Clone 31 humanized IgG4 antibodies (Table 8)
[4] = humanized IgG4 (S228P) variants of antibody 39 (Table 5)

Row | ka [1, 2] [M⁻¹ s⁻¹] | kd [1, 2] [s⁻¹] | ka [1, 3] [M⁻¹ s⁻¹] | kd [1, 3] [s⁻¹] | ka [1, 4] [M⁻¹ s⁻¹] | kd [1, 4] [s⁻¹] | Molecule | IL-1β release (NLRP3 inflammasome) | IL-18 release (NLRP3 inflammasome)
1 | 1.1e+06 | 0.000125 | 1.16e+06 | 0.00015 |  |  | ch31_IGG4.P: rat/human IgG4 (S228P) chimera of antibody 31; HC SEQ ID NO: 37, LC SEQ ID NO: 38 (antibody) heavy: EVHLQQSGAALVRPGTSVKLPCKVSGDSITAYFMHFVRQRPGQGLEWMGRIDPDHERTKYAEKFKNRASLTSETSSNTVFLQLTSLTSEDTATYFCTTERVPGFETDYWGQGVMVTVSSASTKGPSVFPLAPCSRSTSESTAALGCLVKDYFPEPVTVSWNSGALTSGVHTFPAVLQSSGLYSLSSVVTVPSSSLGTKTYTCNVDHKPSNTKVDKRV[no letters for human IgG4 Fc with S228P (EU numbers)] light: DIVLTQSPTLAVSLGQRATISCRTNQTVDHYGTTYMNWYQQKPGQQPKLLIYLASSLASGIPARFSGRGSGTDFTLTIDPVEADDTATYYCQQSRNLWTFGGGTKLELKRTVAAPSVFIFPPSDEQLKSGTASVVCLLNNFYPREAKVQWKVDNALQSGNSQESVTEQDSKDSTYSLSSTLTLSKADYEKHKVYACEVTHQGLSSPVTKSFNRGEC |  | 
2 | 348000 | 7.45e-05 |  |  | 280000 | 9.4e-05 | ch39_IGG4.P: rat/human IgG4 (S228P) chimera of antibody 39; HC SEQ ID NO: 39, LC SEQ ID NO: 40 (antibody) heavy: EVQLVESGGGLVQPGRSLKLSCLASGFTFNNYGMNWIRQAPGKGLEWVASFSSSSTYISYADTVKGRFTISRENAKNTLYLQMTSLRSEDTALYYCVRHGRYGGYGGFYFDYWGQGVMVTVSSASTKGPSVFPLAPCSRSTSESTAALGCLVKDYFPEPVTVSWNSGALTSGVHTFPAVLQSSGLYSLSSVVTVPSSSLGTKTYTCNVDHKPSNTKVDKRV[no letters for human IgG4 Fc with S228P (EU numbers)] light: DTVLTQSPALAVSPGERVSISCRASEGVKSYMHWYQQKPGQQPKLLIYKASNLASGVPARFSGSGSGTDFTLTIDPVEADDTATYFCQQSWNDPTFGAGTKLELKRTVAAPSVFIFPPSDEQLKSGTASVVCLLNNFYPREAKVQWKVDNALQSGNSQESVTEQDSKDSTYSLSSTLTLSKADYEKHKVYACEVTHQGLSSPVTKSFNRGEC | increased | increased
3 |  |  | 1.24e+06 | 0.000615 |  |  | hu31.7_IGG4.P: humanized variant of antibody 31; HC SEQ ID NO: 52, LC SEQ ID NO: 57 (antibody) heavy: EVQLVQSGAEVKKPGATVKISCKVSGDSITAYFMHWVQQAPGKGLEWMGRIDPDHERTKYAEKFKNRVTITADTSTNTVYMELSSLRSEDTAVYYCATERVPGFETDYWGQGVMVTVSSASTKGPSVFPLAPCSRSTSESTAALGCLVKDYFPEPVTVSWNSGALTSGVHTFPAVLQSSGLYSLSSVVTVPSSSLGTKTYTCNVDHKPSNTKVDKRV[no letters for human IgG4 Fc with S228P (EU numbers)] light: DIVMTQSPDLAVSLGERATINCRTQQTVDHYGTTYMNWYQQKPGQPPKLLIYLASSLASGVPDRFSGSGSGTDFTLTISSLQAEDVAVYYCQQSRNLWTFGGGTKVEIKRTVAAPSVFIFPPSDEQLKSGTASVVCLLNNFYPREAKVQWKVDNALQSGNSQESVTEQDSKDSTYSLSSTLTLSKADYEKHKVYACEVTHQGLSSPVTKSFNRGEC |  | 
4 | 902000 | 0.0004 |  |  |  |  | ch19_IGG4.P: rat/human IgG4 (S228P) chimera of antibody 19; HC SEQ ID NO: 35, LC SEQ ID NO: 36 (antibody) heavy: QVQLKETGPGLVQPTQTLSITCTVSGFSLTSYFTQWVRQTPGKGLEWMGFIRSGGSTQYNSAFKSRLSISRDTSKNQVFLKMNSLKTEDTGVYYCARDRPDYHDGTYGVLDVWGQGASVTVSSASTKGPSVFPLAPCSRSTSESTAALGCLVKDYFPEPVTVSWNSGALTSGVHTFPAVLQSSGLYSLSSVVTVPSSSLGTKTYTCNVDHKPSNTKVDKRV[no letters for human IgG4 Fc with S228P (EU numbers)] light: DIRMTQSPASLSASLGETVNIECLASEDIDSDLAWYQKKPGKSPQLLIYNGNALQNGVPSRFSGSGSGTHFSLKINSLQSEDVATYFCQQYINYPYTFGGGTKLELRRTVAAPSVFIFPPSDEQLKSGTASVVCLLNNFYPREAKVQWKVDNALQSGNSQESVTEQDSKDSTYSLSSTLTLSKADYEKHKVYACEVTHQGLSSPVTKSFNRGEC |  | 
